# Data reported in PubChem BioAssay AID434955 (Southern Research Specialized Biocontainment Screening …, 2010).
# The list shows a part of the results. These are further read-outs of the screen, such as a control signal, another cell line or another target. No call is given for them. The list favours compounds with an active or inconclusive main result.
# Assay: beta-lactam sensitization of Mtb H37Rv, H37Rv (AID 434955);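 note: growth measured after seven days incubation then overnight dye step; 0% = bacteria only wells and 100% = bacteria with antibiotic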
# Details: M. tuberculosis H37Rv growth with meropenem, percent inhibition; measured here: primary screen without meropenem; at 25 µM
row,Structure (SMILES),inhibition [%]
1,CC(=O)Nc1ccc(SCC(=O)N(CCC#N)c2cc(C)cc(C)c2)cc1,-1.3
2,Cc1nc2nc3c(c(=O)n2[nH]1)CCC3,-2.58
3,CC1CCc2nn(CC(=O)Nc3ccc(F)cc3F)cc2C1 (configuration not stated),-11.6
4,Cc1ccccc1-c1ccc(Nc2ccc(C(=O)N3CCOCC3)cc2)nn1,12.2
5,O=C(O)c1ccc(Nc2ncnc3ccccc23)cc1,1.33
6,CC(=O)c1ccc(CCCC(=O)O)cc1,-6.03
7,CCCCc1nc2cc(C(=O)NCCc3cnn(C)c3)ccc2o1,0.28
8,CCOc1ccc(/C=N/n2c(C3CCCCC3)n[nH]c2=S)cc1,4.46
9,Fc1ccc(-c2csc(NC(=S)Nc3ccccc3)n2)cc1,9.44
10,CCCCOC(=O)CSc1nnc(N)s1,-6.9
11,Cc1ccc(C(=O)NN2C(=O)/C(=C/c3cccn3C)SC2=S)cc1,5.45
12,Cc1cc(OCc2cc(C(=O)NCc3cc(C(C)C)no3)no2)cc(C)c1Cl,5.68
13,CCOC(=O)C1(c2ccccc2)CCN(CC(=O)Nc2cccc3ccccc23)CC1,5.62
14,CCCCCNCc1cccc(Br)c1,-8.36
15,O=C(CN1C(=O)COc2ccc(Cl)cc21)Nc1ccc2c(c1)OCCO2,-2.91
16,COc1cc(CO)cc(Br)c1OCC(=O)N1CCCCC1,-3.01
17,O=C(NC(c1ccccc1)c1c(O)ccc2ccccc12)c1ccccc1Cl (configuration not stated),4.48
18,CCn1c(=O)cc(SCC(=O)NCCCN2CCN(c3ccccc3F)CC2)c2ccccc21,3.02
19,Cc1cc(C)n(CCCNCC(O)c2ccccc2)n1 (configuration not stated),-3.05
20,O=C(NCCC1=CCCCC1)c1ccc(Cl)c([N+](=O)[O-])c1,43.4
21,CCOC(=O)c1[nH]c(C)c(C(=O)c2ccc(C)cc2)c1C,1.18
22,CC(=C/c1ccccc1)/C=N/Nc1nc(N2CCCCC2)nc(N2CCCCC2)n1,77.7

row,Structure (SMILES),inhibition [%]
1,Cc1nn(Cc2ccccc2)c(Cl)c1C(=O)OCC(=O)NC(=O)NC12CC3CC(CC(C3)C1)C2,3.45
2,C=C(C)Cn1c(N(CCO)Cc2ccccc2)nc2c1c(=O)[nH]c(=O)n2C,-7.88
3,c1ccc2nc(-c3nc4ccccc4o3)ccc2c1,27.5
4,O=c1[nH]c(/C=C/c2cccc(Br)c2)nc2ccccc12,9.9
5,CCOC(=O)Cc1csc(N/N=C\c2ccc(N(C)C)cc2)n1,-6.97
6,Cc1nn(-c2ccccc2)c2nc(N)c(C#N)c(-c3ccc(O)c(O)c3)c12,5.12
7,CCOc1ccccc1-n1c(N)c(C(N)=O)sc1=S,-6.15
8,CCO[C@H]1OC(C(=O)NCc2nc3ccccc3[nH]2)=C[C@@H](c2cn(C(C)=O)c3ccccc23)[C@@H]1CCCO,18.8
9,COc1ccc(N(CC(=O)N2c3ccccc3CC2C)S(=O)(=O)c2c(C)noc2C)cc1 (configuration not stated),-1.26
10,CCCNC(=O)N[C@@H](CCSC)C(=O)OC,3.02
11,COCCNC(=O)c1cn(C)c(=O)c2cc(OC)c(OC)cc12,2.41
12,Cc1ccc2[nH]cc(CCNC(=O)Nc3ccccc3)c2c1,-0.74
13,CN1CCN(c2ccccc2NC(=O)c2ccc(-c3ccc(Cl)c(Cl)c3)o2)CC1,5.01
14,COc1ccc(NC(=O)C(Cc2ccccc2)n2cccc2)c(OC)c1 (configuration not stated),46
15,COc1ccc(C(=O)Nc2oc(-c3ccccc3)c(-c3ccccc3)c2C#N)cc1OC,33.9
16,Cc1cccc(/C=C/c2onc(C)c2S(=O)(=O)N2CCC(C(=O)NC(C)C)CC2)c1,-9.58
17,COc1ccc(CCN(Cc2cc3cccc(C)c3[nH]c2=O)C(=O)NC2CCCCC2)cc1OC,-5.94
18,CCc1ccccc1-n1nnnc1SCC(=O)Nc1ccc(N2CCN(C)CC2)cc1,53.4
19,CCCOC(=O)C1C2C=CC3(CN(c4cccc(Cl)c4)C(=O)C13)O2 (configuration not stated),-1.6
20,Cc1ccc(CN2CC34C=CC(O3)C(C(=O)NCc3ccco3)C4C2=O)cc1 (configuration not stated),-4.16
21,COc1ccc(-c2nnc(SCC(=O)NC(C)c3ccccc3)o2)cc1 (configuration not stated),0.93
22,COC(=O)/C=C1/S/C(=N/N=C/c2ccc(N(C)C)cc2)NC1=O,-3.82

row,Structure (SMILES),inhibition [%]
1,CC1CCc2c(sc(NC(=O)c3ccc(Cn4cc(Br)cn4)o3)c2C(N)=O)C1 (configuration not stated),3.93
2,Cn1nc(-c2ccc(C(=O)Nc3cccnc3)cc2)c2ccccc2c1=O,4.1
3,CCOc1ccccc1CN1CCNC(=O)C1CC(=O)NCCc1ccccn1 (configuration not stated),0.15
4,CCn1c(SCC(=O)NC2CC2)nnc1-c1ccc(C)cc1,-8.79
5,O=C(Nc1cccc(C(F)(F)F)c1)C1(c2ccccc2)CC1,-7.44
6,CC(=O)c1ccc(OC(=O)N(c2ccccc2)c2ccccc2)cc1,45.5
7,CC1Cc2ccccc2N1C(=O)c1cccnc1 (configuration not stated),-0.27
8,CC1CCCCN1S(=O)(=O)c1ccc(C(=O)Nc2ccccc2-c2nc3ccccc3[nH]2)cc1 (configuration not stated),-7.63
9,Cc1cccc(N(C)S(=O)(=O)c2ccc3c(c2)CCC(=O)N3)c1,-2.29
10,CN(C)S(=O)(=O)c1c(Cl)cccc1Cl,-11.2
11,CCCC(=O)NCCCc1nc2ccccc2n1CCC,-0.67
12,COc1cc(C(=O)COC(=O)c2cnc(C)cn2)ccc1OC(F)F,-9.51
13,CSCCC(NC(=O)c1ccco1)C(=O)OCC(=O)Nc1sccc1C#N (configuration not stated),-7.44
14,CCOC(=O)c1[nH]c(C)c(/C(O)=C2\C(=O)C(=O)N(CCN(C)C)C2c2ccc(C)o2)c1C (configuration not stated),2.75
15,CCCC(=O)Nc1ccc(C(=O)Nc2nnc(COC)s2)cc1,-8.87
16,Clc1ccccc1Nc1ncnc2c1nnn2Cc1ccccc1,3.84
17,CN1C/C(=N\S(=O)(=O)c2ccccc2)N(C)C1=O,38
18,Cc1ccnc(SCCn2c(N3CCC(C)CC3)nc3c2c(=O)n(C)c(=O)n3C)n1,-4.45
19,CCOC(=O)N1CCN(C(=O)c2cc(COc3cccc(C(C)=O)c3)on2)CC1,1.88
20,Cc1cc(OCC(=O)O)c2ccccc2n1,-2.82
21,O=C(/C=C/c1ccc([N+](=O)[O-])cc1)NCCSc1ccccc1,2.6
22,COc1ccc(CN2C(=O)c3cccnc3C2=O)cc1S(=O)(=O)N1CC(C)Oc2ccccc21 (configuration not stated),-4.18

row,Structure (SMILES),inhibition [%]
1,Cc1onc(-c2c(Cl)cccc2Cl)c1/C(N)=N/OC(=O)C1CC1,39.6
2,O=C1CC(=O)Nc2cc(S(=O)(=O)Nc3ccc(F)cc3Cl)ccc2N1,-6.64
3,Cc1ccc(NC(=O)/C=C/C(=O)O)c([N+](=O)[O-])c1,-1.32
4,COC(=O)CCN1CCC(C(N)=O)CC1,-7
5,CN1C(=O)SC(Nc2ccccc2C(=O)O)C1=O (configuration not stated),-2.27
6,CSc1ccc(C2C(C#N)=C(N)Oc3c2ccc(=O)c2c(C)oc(C)c32)cc1 (configuration not stated),42.4
7,COc1ccc(CNC(=O)c2ccc(CS(=O)(=O)c3ccc(Br)cc3)o2)cc1,5.16
8,Cc1sc2ncnc(SCC(=O)NC3CC3)c2c1C,-2.24
9,COC1CCN(Cc2c(C(=O)N3CCc4ccccc4C3)nc3ccc(Cl)cn23)CC1,-3.21
10,CC(=O)c1cccc(OCc2cc(C(=O)NC(C)Cc3cccnc3)no2)c1 (configuration not stated),0.93
11,CCOc1ccc(Cn2nnc(C(=O)Nc3cc(C)cc(C)c3)c2N)cc1,-16
12,O=C(Nc1cccc(-c2cccc(Cl)c2)c1)C1CCN(Cc2ccc(CO)o2)CC1,6.27
13,CC(=O)c1sc(N/N=C\c2ccc(Br)cc2)nc1C,1.07
14,CCOc1ccc(-c2nc(CN3CCCC(C(=O)N4CCOCC4)C3)c(C)o2)cc1 (configuration not stated),2.65
15,CCOC(=O)N1CCN(C(=O)CSCC(=O)Nc2nc(-c3ccc(Cl)s3)cs2)CC1,-7.59
16,Cc1nnsc1C(=O)NC1CCCc2c1cnn2-c1ccc(C(C)(C)C)cc1 (configuration not stated),99
17,Cc1ccc(C)c(N2CCN(CCCNC(=O)Cn3cc4c(n3)CCC(C)C4)CC2)c1 (configuration not stated),3.03
18,Cc1ccc(C(=O)N/C(=C\c2ccc(-c3ccc(Cl)cc3)o2)C(=O)NCCCN(C)C)cc1,-5.89
19,O=C(CN1C(=O)c2cccnc2Oc2ccc(Cl)cc21)NCCCc1ccccc1,6.53
20,COc1cccc(C(=O)Oc2ccc3c(C)cc(=O)oc3c2C(C)=O)c1,0.56
21,COc1ccc(C(=O)Nc2ccccc2C(=O)NCCN2CCOCC2)cc1OC,4.9
22,COc1ccc(-c2cc3ccccc3oc2=O)cc1NC(=S)NC(=O)c1ccc2c(c1)OCCO2,-2.14

row,Structure (SMILES),inhibition [%]
1,CCOc1cc(N2CCOCC2)c(OCC)cc1NC(=O)COc1ccc2ccc(=O)oc2c1,5.76
2,Cc1ccc(S(=O)(=O)c2nc(-c3ccco3)oc2N2CCC(C)CC2)cc1,8.39
3,Cc1nnc(SCC(=O)Nc2nccs2)s1,-4.97
4,O=C(NCC1CCCN(Cc2nccs2)C1)c1cccc2ccccc12 (configuration not stated),-2.1
5,Cc1cc(C)nc(NS(=O)(=O)c2ccc(NS(=O)(=O)c3ccc(C#N)cc3)cc2)n1,3.85
6,O=C1C(Oc2ccccc2)C(c2ccc3c(c2)OCO3)N1CCc1ccc(F)cc1 (configuration not stated),9.88
7,Nc1nc2n(n1)C(c1c(F)cccc1Cl)CC(c1ccc(F)cc1)N2 (configuration not stated),-7.2
8,O=C(O)CN1C(=O)/C(=C\c2cc(Br)ccc2OCc2ccccc2F)SC1=S,3.09
9,CC/C(=N\NC(=S)NC(C)C)c1ccc(OC)c(OC)c1,37.9
10,CC(C)CC(=O)NC(=S)Nc1ccc(N2CCN(C(=O)c3cccs3)CC2)cc1,5.15
11,O=C(/C=C/c1ccc([N+](=O)[O-])cc1)c1cccs1,6.74
12,CCc1ccc(N2CC34C=CC(O3)C(C(=O)OC(C)C)C4C2=O)cc1 (configuration not stated),-9.79
13,COC(=O)C(NC(=O)c1ccc(OC)cc1)(Nc1ncc(S(=O)(=O)c2ccc([N+](=O)[O-])cc2)s1)C(F)(F)F (configuration not stated),94.1
14,CCN(CC)CCCn1c(=S)[nH]c2ccc(Cl)cc2c1=O,1.05
15,COCCCNC(=O)C1CC(=O)OC1c1ccc(OC)c(OC)c1 (configuration not stated),7.78
16,COc1ccc(-c2cc(C(=O)Nc3ccc(S(=O)(=O)Nc4ncccn4)cc3)c3ccccc3n2)cc1,5.51
17,CSc1nc(N2CCOCC2)c2ccccc2n1,3.62
18,O=C1COc2ccc(C(=O)/C=C/c3ccccc3)cc2N1,24.7
19,CCn1cc(S(=O)(=O)c2ccc(Cl)cc2)c(=O)c2cc(OC)ccc21,13.1
